The values that follow come from ChEMBL document CHEMBL5050857, “Mettl3 modulators” (2021).

Experiment [1] can be described thus: Inhibition of METTL16 (unknown origin) using CGAUACAGAGAAGAUUAGCAUACGCAAAUUCGUGAAGCG-biotin and SAM as substrates preincubated for 5 mins followed by substrate addition incubated for 220 mins by TopCount scintillation counting method. Also on record: species or system Homo sapiens.
In experiment [2] the target is T1, N6-adenosine-methyltransferase catalytic subunit (Homo sapiens, UniProt Q86U44). The experiment can be described thus: Inhibition of METTL3 (unknown origin) using UCUGGACUAAA-biotin and 3H-SAM as substrates preincubated for 5 mins followed by substrate addition incubated for 30 mins by TopCount scintillation counting method.
The target in experiment [3] is T1, N6-adenosine-methyltransferase catalytic subunit. The experiment can be described thus: Inhibition of METTL3-mediated m6A methylation in human MOLM-13 cells assessed as reduction in mRNA level measured after 24 hrs by LC-MS/MS analysis. It counts as cell-based.
Experiment [4] deals with MOLM-13. Description: Antiproliferative activity against human MOLM-13 cells after 96 hrs by Cell Titer-Glo assay. The class given is functional, cell-based. The note with it: MOLM-13, 96 h. For orientation: Cellular ATP, detected with luciferase, serves as a proxy for viable cell number.
The subject of experiment [5] is MOLM-13. The experiment can be described thus: Antiproliferative activity against human MOLM-13 cells after 48 hrs by Cell Titer-Glo assay. It counts as functional, cell-based. The note with it: MOLM-13, 48 h.

T1 sequence (Q86U44 whole entry): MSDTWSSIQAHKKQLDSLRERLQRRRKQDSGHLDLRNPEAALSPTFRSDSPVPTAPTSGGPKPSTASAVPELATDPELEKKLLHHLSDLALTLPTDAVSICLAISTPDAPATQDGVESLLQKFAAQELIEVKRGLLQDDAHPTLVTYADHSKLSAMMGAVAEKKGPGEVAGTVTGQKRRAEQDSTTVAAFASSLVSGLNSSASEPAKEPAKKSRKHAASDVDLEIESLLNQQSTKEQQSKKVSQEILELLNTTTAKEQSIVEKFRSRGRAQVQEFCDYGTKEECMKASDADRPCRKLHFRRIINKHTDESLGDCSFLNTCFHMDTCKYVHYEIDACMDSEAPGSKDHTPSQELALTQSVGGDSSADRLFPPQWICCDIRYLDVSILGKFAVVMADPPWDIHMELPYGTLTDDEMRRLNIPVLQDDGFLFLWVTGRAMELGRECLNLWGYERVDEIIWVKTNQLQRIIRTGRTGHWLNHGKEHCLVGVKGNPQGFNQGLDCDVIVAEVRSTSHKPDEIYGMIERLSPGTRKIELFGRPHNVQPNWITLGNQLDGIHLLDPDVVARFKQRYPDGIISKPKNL

As a reminder, the IC50 is the concentration needed to halve the response being measured. Regarding `CNc1ccc2ccc(OC[C@H]3O[C@@H](n4cc(C5CCCC5)c5c(N)ncnc54)[C@H](O)[C@@H]3O)cc2n1`, the IC50 in experiment [1] was ≥ 1 µM; in experiment [2] it was < 0.01 µM; in experiment [3], < 1 µM; in the experiment on MOLM-13 [4], < 1 µM; in the experiment on MOLM-13 [5] it was 1 µM.
Regarding `CNc1ccc2ccc(OC[C@H]3O[C@@H](n4cc(-c5ccn(C)n5)c5c(N)ncnc54)[C@@H](F)[C@@H]3O)cc2n1`, the IC50 in experiment [1] was ≥ 1 µM; in experiment [2], < 0.01 µM; in experiment [3] it was < 1 µM; in the experiment on MOLM-13 [4] it was < 1 µM; in the experiment on MOLM-13 [5], < 1 µM.
Take `CNc1ccc2ccc(OC[C@H]3O[C@@H](n4cc(Br)c5c(N)ncnc54)[C@H](O)[C@@H]3O)cc2n1`: the half-inhibitory concentration (IC50) is ≥ 1 µM in experiment [1]; < 0.01 µM in experiment [2]; 1 µM in experiment [3]; < 1 µM with MOLM-13 [4]; 1 µM with MOLM-13 [5].
For the compound `CNc1ccc2ccc(CC[C@H]3O[C@@H](n4cc(C5CCCC5)c5c(N)ncnc54)[C@H](O)[C@@H]3O)cc2n1`, the IC50 in experiment [1] is ≥ 1 µM; in experiment [2] it was < 0.01 µM; in experiment [3], 1 µM; in the experiment on MOLM-13 [4], < 1 µM; in the experiment with MOLM-13 [5] it was 1 µM.
Take `CNc1ccc2ccc(OC[C@H]3O[C@@H](n4cc(C5CC5)c5c(N)ncnc54)[C@@H](F)[C@@H]3O)cc2n1`: the IC50 in experiment [1] was ≥ 1 µM; in experiment [2], < 0.01 µM; in experiment [3], 1 µM; in the experiment with MOLM-13 [4], < 1 µM; in the experiment on MOLM-13 [5] it was < 1 µM.
Consider `CNc1ccc2ccc(OC[C@H]3O[C@@H](n4cc(Cl)c5c(N)ncnc54)[C@H](O)[C@@H]3O)cc2n1`, for which the IC50 in experiment [1] is ≥ 1 µM; in experiment [2], < 0.01 µM; in experiment [3], 1 µM; with MOLM-13 [4], < 1 µM; in the experiment on MOLM-13 [5], 1 µM.
As for `CNc1ccc2ccc(OC[C@H]3O[C@@H](n4cc(C5CCCC5)c5c(N)ncnc54)[C@@H](F)[C@@H]3O)cc2n1`, the IC50 in experiment [1] is ≥ 1 µM; in experiment [2], < 0.01 µM; in experiment [3], 1 µM; in the experiment with MOLM-13 [4], 1 µM; in the experiment on MOLM-13 [5], 1 µM.
